# The other results are listed elsewhere or left out.
# System: T1, C. trachomatis L2/434/Bu expressing GFP (CTL2-GFP)
# T1 construct: L2/434/Bu GFP intracellular growth in HeLa cells
# Set-up: species or system HeLa; C. trachomatis total inclusion area by high-content imaging, normalised to DMSO
# Conditions: total inclusion area; 28.5 h, 10 µM; inhibitor
# How it was run: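 Following bulk GFP and resorufin fluorescence reads, infected cells were fixed, Hoechst-stained and imaged on a high-content platform. Inclusion total area and number per well served as growth proxies; nuclei counts indicated host viability. MICs were derived as for the fluorescence assay.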
row,Compound,% of control remaining
1,CCCCC(=O)/N=C(\N)Nc1nc2ccccc2o1 [CBK287937],7.818
2,Cc1cc(C(F)(F)F)n(CC(C)CNC(=O)Cc2csc(C)n2)n1 (stereo not shown) [CBK306733],71.9598
3,Cc1ccc(Oc2ccc([N+](=O)[O-])cc2F)c(Br)c1 [CBK002821],115.53
4,Cc1cc(F)ccc1OC1(C(=O)O)CCN(Cc2ccoc2)CC1 [CBK307187],26.8477
5,C/C(=N\N=C1\N=C(O)C(CC(=O)O)S1)c1ccco1 (stereo not shown) [CBK021973],71.7712
6,CCSc1nc(=O)c2c(n1C)NC(=O)CC2c1ccccc1 (stereo not shown) [CBK307541],89.0495
7,O=c1c2c([nH]c3nc(NCc4ccc(OCc5ccccc5)cc4)nn13)CCC2 [CBK268044],101.311
8,CCNC(=O)N[C@H]1CO[C@H]2[C@@H]1OC[C@@H]2Nc1nccc(-c2ccc(OC)cc2)n1 [CBK289528],89.0845
9,CCN(C(=O)c1ccncc1)C(CC1CCCCC1)c1ccccc1 (stereo not shown) [CBK061674],65.0561
10,Cn1c(CN2C[C@H](O)C[C@H]2c2nc(-c3ccccc3)no2)nc2ccccc21 [CBK288834],107.417
11,O=C1N=C(NC2CCCC2)OC12CCN(Cc1ccccc1)CC2 [CBK115430],106.749
12,O=[N+]([O-])c1ccccc1/C=N/Nc1nnn[nH]1 [CBK260971],68.9282
13,CCn1c(COc2ccccc2)nnc1Sc1ccc([N+](=O)[O-])cc1C=O [CBK267888],64.5636
14,O=C(CC1CC1)Nc1cc(-c2ccncc2)c[nH]c1=O [CBK116585],95.9091
15,CC(=O)c1cc(CCCO)n(Cc2ccco2)c1C [CBK022013],104.932
16,COc1ccc(C(=O)NCCc2ccc(S(N)(=O)=O)cc2)cc1[N+](=O)[O-] [CBK264335],106.392
17,CCN1c2ccc(-c3cncn3CC(=O)NC(C)(C)C)cc2CC1C (stereo not shown) [CBK281815],122.446
18,O=C(c1cc[nH]n1)N1CCCCC1c1ncc(-c2cccc(F)c2)[nH]1 (stereo not shown) [CBK291217],104.026
19,CN1CCC(N2CCN(C(=O)c3cncc(-c4ccc(C(=O)N5CCOCC5)cc4)c3)CC2)CC1 [CBK158600],83.0216
20,CCc1[nH]nc(O)c1Cc1c(Cl)cccc1Cl [CBK105304],134.697
21,CC(=O)c1cc(CN(C)C(C)c2ccncn2)cs1 (stereo not shown) [CBK307470],100.433
22,Cc1cc(Cl)c(S(=O)(=O)Nc2ccon2)cc1OCC(N)=O [CBK266589],109.46
23,CSc1ccc(-c2nc(NC(=O)C(C)C)cc3ccccc23)cc1 [CBK085735],89.4457
24,O=C(C1CCCCC1)N1CCCC1c1n[nH]cc1-c1ccncc1 (stereo not shown) [CBK283434],90.5466
25,CSCCC(=O)Nc1cc(C)nc2ccccc12 [CBK122729],84.5569
26,CN(C)Cc1c(O)ccc2occ(C(O)c3ccccc3)c12 (stereo not shown) [CBK261313],115.519
27,CC(Cc1ccccn1)N(C)C(=O)c1cnn(-c2ccc(F)cc2)c1 (stereo not shown) [CBK283316],92.984

row,Compound,% of control remaining
1,Nc1cc(N)nc(SCc2cccnc2)n1 [CBK267459],111.548
2,COc1ccc([C@@]23CC[C@@H](NC(=O)c4ccc5c(c4)OC(F)(F)O5)C[C@@H]2N(C)CC3)cc1OC [CBK076658T],80.0555
3,CC(C)(CO)CNc1cncc(-c2cccnc2)n1 [CBK037881],101.527
4,CC(C)Oc1ncc(C(=O)Nc2cnn(CC(N)=O)c2)cc1Cl [CBK306311],19.3243
5,C=Cn1ncc(CN(CCCn2ccnc2)CC2CC=CCC2)c1C (stereo not shown) [CBK283219],104.632
6,O=C(CSc1ccccn1)Nc1ccccc1-c1ccccc1 [CBK263553],89.8484
7,CCOc1cc(C(=S)N2CCOCC2)ccc1OCc1ccccc1 [CBK027466],49.0882
8,C=CCN1C(=O)C2(Nc3ccccc3C(=O)N2c2ccc(Cl)cc2)c2ccccc21 (stereo not shown) [CBK093474],73.3054
9,CC(=O)N1CCc2ccc(NC(=O)c3cc(-c4ccc(C(=O)N5CCOCC5)cc4)cnc3N)cc21 [CBK160205],97.4677
10,Cn1nc(C(=O)NCc2ccccc2)cc1C(=O)NCc1ccccc1 [CBK270004],78.0461
11,Cc1ccc(S(=O)(=O)Nc2ccccc2CNc2ccc(Br)cc2)cc1 [CBK264214],75.9919
12,CC(C)Cc1ccc(C(CC(=O)O)C(=O)O)cc1 (stereo not shown) [CBK286703],106.261
13,COc1ccc(NC(=O)N(CCO)C2CCCCC2)c(OC)c1 [CBK008768],94.5862
14,CN(CCN1CCCCC1)C(=O)Cn1ccnc1-c1ccccc1 [CBK281900],118.377
15,COC(=O)c1ccc(N2CCN(C)CC2)c(NC(=O)c2cc(Br)ccc2OC)c1 [CBK269221],84.7839
16,CC(C)[C@@H](CO)n1c(=O)[nH]c2ncc(-c3cccc4ccccc34)nc21 [CBK064961],78.6271
17,COc1cc(CO)cc(I)c1OCC(=O)Nc1ccccc1 [CBK265950],98.9411
18,OC1CCC(Nc2cncc(-c3cccc4ccccc34)n2)CC1 (stereo not shown) [CBK065902],109.481
19,CCCn1cnc2sc(C(=O)Nc3ccc(C)cc3C)c(C)c2c1=O [CBK071815],108.425
20,COc1ccc(Oc2ccc(C=Cc3nc4sc(C(=O)O)c(C)c4c(=O)[nH]3)cc2[N+](=O)[O-])cc1 [CBK295637],130.714
21,CCN(CC)C(=O)CCNC(=O)c1ccc2c(c1)COC(C1CCN(C(=O)OC(C)(C)C)CC1)O2 (stereo not shown) [CBK173273],78.1269
22,Cc1nc(-c2ccccc2)sc1C(=O)C1=C(O)C(=O)N(CCN(C)C)C1c1ccc(Cl)cc1 (stereo not shown) [CBK266595],115.664
23,Cn1cnnc1SCC(=O)c1cccc(C(F)(F)F)c1 [CBK067718],94.8337
24,O=C(NCCO)c1cccc(-c2cncc(N3CCCCC3CCO)n2)c1 (stereo not shown) [CBK037759],120.487
25,Cc1cc(C(C)NC(=O)C2CCCN(S(C)(=O)=O)C2)c(C)s1 (stereo not shown) [CBK305464],51.9697
26,Cc1nc(N2CCCCC2)ncc1C(=O)NCCc1cc[nH]n1 [CBK307035],95.7607
27,CC1CCc2c(sc(NC(=O)COc3ccccc3)c2C(=O)Nc2ccccc2Cl)C1 (stereo not shown) [CBK263044],88.3275

row,Compound,% of control remaining
1,Clc1ccc(COc2cccc(CNCc3ccccn3)c2)c(Cl)c1 [CBK270060C],67.2948
2,COc1ccccc1NC(=O)c1cn(Cc2ccc(N)cc2)cn1 [CBK288045],87.9005
3,Cc1ccc(Cl)cc1NC(=O)c1cc(NC(=O)C2CC=CCC2C(=O)O)ccc1N1CCOCC1 (stereo not shown) [CBK268479],83.0151
4,O=C(O)c1cc(Sc2nnnn2-c2ccccc2)c2ccccc2c1O [CBK006925],95.6343
5,O=C1c2ccccc2CN1CCNS(=O)(=O)c1ccc2oc3ccccc3c2c1 [CBK264918],88.022
6,CC1Oc2ccc(S(=O)(=O)Nc3ccc(CCC(=O)O)cc3)cc2NC1=O (stereo not shown) [CBK299769],125.793
7,Cc1c(NC(=S)NC(=O)Cc2ccccc2)cccc1-c1nc2ncccc2o1 [CBK264345],66.4189
8,O=C1Nc2ccc(Br)cc2C(=O)N2CCN(C(=O)c3ccccc3)C[C@H]12 [CBK289589],80.4464
9,Cc1noc(C)c1C(=O)N1CCN(Cc2ccco2)C[C@@H]1C(C)C [CBK284248],99.3323
10,CCOc1ccc(S(=O)(=O)N2CCCN(Cc3ccc(C#N)cc3)CC2)c2cccnc12 [CBK062759],56.7108
11,CCN1CCN(C(=O)c2ccc(N(C)C)cc2)CC1 [CBK200252],115.561
12,O=C(NC1CCN(CC(F)(F)F)C1=O)c1ccnc(C2CC2)n1 (stereo not shown) [CBK306268],66.0209
13,Cc1ccc(Cn2nc(NC(=O)c3ccccc3)c3ccccc32)cc1 [CBK048213],91.9257
14,CCc1nccn1CCC(=O)NC(c1ccc(C)cc1)c1cccnc1 (stereo not shown) [CBK282032],54.9393
15,O=C(COc1cc(C(=O)O)nc2ccccc12)NCc1ccc(Cl)cc1 [CBK287247],143.335
16,CN(C)S(=O)(=O)c1ccc(C(=O)C2=C(O)C(=O)N(CCN3CCOCC3)C2c2ccco2)cc1 (stereo not shown) [CBK264521],118.613
17,Cc1nn2c(COc3ccc(NC(=O)C4CCCCC4)cc3)nnc2c2ccccc12 [CBK268528],101.932
18,Cc1cc(NC(=O)CN2CCC(CNc3ncccc3C#N)C2)on1 (stereo not shown) [CBK306127],85.0905
19,NC(=O)CN1CCN(c2nccnc2OCc2ccc(Cl)c(Cl)c2)CC1 [CBK083079T],56.9709
20,Cc1csc(NC(=O)CN2CCC(c3ccc(F)cc3)CC2)n1 [CBK283567],84.7374
21,Cc1ccc(CNCCn2nnc(-c3ccc(CN4CCC(C)CC4)cc3)n2)cc1 [CBK154882T],91.1011
22,CC(C)(C)c1ccc(OCC(=O)Nn2cnnc2)cc1 [CBK027576],111.865
23,Cc1ccccc1C(=O)NCC(=O)Nc1cc2ccccc2c(Br)n1 [CBK063298],100.931
24,CCS(=O)(=O)N1C[C@H]2CC[C@](O)(c3ccc(C)cc3)[C@H]2C1 [CBK285296],85.713
25,c1ccc(-c2nccnc2OCCc2cccs2)cc1 [CBK106673],112.261

# — paper PMC12040169 (PLOS Biology, 2025)
